Hit rate of the full screen: of about 310,000 compounds, about 14,000 (4.5%) showed an effect of 50% or more. Effects have a minus sign here. This is one part of the list.
Target: human ether-à-go-go-related gene (hERG) potassium channel (human, UniProt Q12809)
Test: primary screen, population patch clamp on CHO cells stably expressing hERG
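Further: peak tail current of the secondary pulse compared with the same well before compound.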

Sequence of human ether-à-go-go-related gene (hERG) potassium channel (Q12809 whole entry, looked up): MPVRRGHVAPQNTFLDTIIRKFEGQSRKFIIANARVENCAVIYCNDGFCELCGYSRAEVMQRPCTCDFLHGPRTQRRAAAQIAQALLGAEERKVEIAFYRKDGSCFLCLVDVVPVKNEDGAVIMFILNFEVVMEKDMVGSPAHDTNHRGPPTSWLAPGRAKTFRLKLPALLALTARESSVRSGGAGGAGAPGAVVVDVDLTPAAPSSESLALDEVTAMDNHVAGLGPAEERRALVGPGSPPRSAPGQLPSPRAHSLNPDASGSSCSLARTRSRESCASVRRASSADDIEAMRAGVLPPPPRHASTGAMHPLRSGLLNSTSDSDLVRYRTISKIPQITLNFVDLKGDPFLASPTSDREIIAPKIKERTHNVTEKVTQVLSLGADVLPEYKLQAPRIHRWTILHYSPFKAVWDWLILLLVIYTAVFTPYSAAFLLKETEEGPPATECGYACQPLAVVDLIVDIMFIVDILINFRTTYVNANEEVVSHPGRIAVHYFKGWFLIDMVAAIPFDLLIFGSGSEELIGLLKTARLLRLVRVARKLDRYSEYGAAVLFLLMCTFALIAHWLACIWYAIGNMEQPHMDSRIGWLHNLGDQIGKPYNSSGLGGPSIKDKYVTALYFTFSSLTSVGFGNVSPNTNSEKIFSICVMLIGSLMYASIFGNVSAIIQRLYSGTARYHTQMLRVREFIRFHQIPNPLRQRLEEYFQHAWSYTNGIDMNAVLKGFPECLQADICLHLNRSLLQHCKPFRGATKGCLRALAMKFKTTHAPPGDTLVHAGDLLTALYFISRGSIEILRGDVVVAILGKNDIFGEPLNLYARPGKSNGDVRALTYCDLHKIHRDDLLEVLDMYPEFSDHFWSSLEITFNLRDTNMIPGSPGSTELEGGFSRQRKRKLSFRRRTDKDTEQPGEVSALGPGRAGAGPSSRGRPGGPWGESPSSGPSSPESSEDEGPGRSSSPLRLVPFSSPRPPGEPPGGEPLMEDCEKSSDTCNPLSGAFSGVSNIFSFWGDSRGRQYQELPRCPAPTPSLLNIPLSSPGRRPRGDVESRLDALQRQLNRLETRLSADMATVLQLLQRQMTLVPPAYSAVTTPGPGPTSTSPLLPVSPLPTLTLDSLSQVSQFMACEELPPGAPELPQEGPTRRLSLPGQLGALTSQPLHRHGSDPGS

| Compound | hERG current change (%, negative = inhibition) at 10uM [%] |
| --- | --- |
| CCN(CC)S(=O)(=O)c1ccc(OC)c(NC(=S)Nc2cccc(C)c2C)c1 | -3.26 |
| CC1CC(C)CN(C(=O)CNS(=O)(=O)c2ccc(Br)s2)C1 (stereo not drawn) | -1.92 |
| CCn1cnc2c1c(=O)n(CC(=O)OC)c(=O)n2Cc1ccccc1 | 15.4 |
| COc1ccccc1C1(CCN=Cc2ccc(N(C)C)cc2)CCOC(C)(C)C1 (stereo not drawn) | -2.03 |
| Cc1ccc(S(=O)(=O)NCC(=O)N(CC(=O)NCc2ccco2)Cc2cccs2)cc1 | -48.4 |
| Cc1nnc(SCC(=O)NC2CC2)n1CCc1ccccc1 | 13 |
| CN(C)C(=O)c1cc(C(=O)c2ccccc2Br)c[nH]1 | 20.7 |
| Cc1ccc(C(=O)Nc2cccc(C(=O)N/N=C/c3ccccc3F)c2)cc1 | -1.85 |
| COc1ccc(OC)c(-c2nc(CN(C)C(C)c3ccncn3)c(C)o2)c1 (stereo not drawn) | 0.284 |
| CCOC(=O)C1(C(F)(F)F)N=C(C(F)(F)F)Nc2cc(C)c(C)cc21 (stereo not drawn) | -1.3 |
| COc1ccc(Nc2ccc(N3C(=O)CCCC3=O)cc2[N+](=O)[O-])cc1OC | 20.8 |
| Cc1[nH]c2ccc(C(=O)N3CCN(c4ccc(F)cc4)CC3)cc2c1C | 1.66 |
| C=CCn1c(SCC(=O)NCCOC)nnc1-c1cc2c(s1)CCC(CC)C2 (stereo not drawn) | -4.36 |
| COCc1cc(=O)n2[nH]c(C(C)(C)C)cc2n1 | 18.5 |
| COc1ccc(N2CCN(C(=O)c3c(-c4c(F)cccc4Cl)noc3C)CC2)cc1 | 6.53 |
| COc1ccc(C(=O)Nc2ccc3c(c2)C(=O)c2ccccc2C3=O)cc1OC | 9.3 |
| CC(NC(=O)c1cc2c(s1)CS(=O)(=O)C2)c1ccccc1 (stereo not drawn) | 10.3 |
| CN/C(=C/[N+](=O)[O-])NCCSCc1ccc(CN(C)C)o1.Cl | 8.84 |
| Cc1ccc(NC2c3ncccc3C(=O)N2C2CCCCC2)cc1 (stereo not drawn) | 5.93 |
| CN(C)S(=O)(=O)c1cccc(NC(=O)COC(=O)c2cn(-c3ccccc3)nc2-c2ccccc2)c1 | 12.3 |
| CN(C)S(=O)(=O)c1ccc(C(=O)Nc2nc3ccccc3[nH]2)cc1 | 31.3 |
| COCCNC(=O)[C@@H]1CSC2c3ccccc3C(=O)N21 (stereo partly drawn) | 16.7 |
| C[C@H](NC(=O)c1ccccc1)C(=O)N1CCC2(CC1)NCCc1[nH]cnc12 | 11.8 |

| Compound | hERG current change (%, negative = inhibition) at 10uM [%] |
| --- | --- |
| C=CCOc1c(Br)cc(CNc2ccc3[nH]c(=O)[nH]c3c2)cc1OCC | 19.7 |
| CN(C)S(=O)(=O)c1ccc(NC(=O)Cc2ccc(S(=O)(=O)N3CCOCC3)s2)cc1 | 8.24 |
| COC(=O)C[C@H]1c2ccccc2S(=O)(=O)N1c1cccc(OC)c1 | -5.21 |
| CCn1ncc(CNC(=O)c2cccc([N+](=O)[O-])c2)c1C | -1.92 |
| Cn1c(SCC(=O)N2CCOCC2)nc2sc3c(c2c1=O)CCCC3 | -19.9 |
| CN(C)c1nc(SCC#N)nc(N2CCOCC2)n1 | 8.99 |
| CC1CN(CCc2ccccc2)c2nc3c(c(=O)[nH]c(=O)n3C)n2C1 (stereo not drawn) | -35.9 |
| CCCN1CCc2c(sc(NC(=O)c3ccc(S(=O)(=O)N4CCCC4)cc3)c2C(N)=O)C1 | -0.925 |
| CCC(=O)Nc1sccc1C(=O)OC | 3.77 |
| CN(Cc1ccc(F)cc1)C(=O)CNC(=O)C1CCCCC1 | 17.8 |
| O=C(COC(=O)COc1ccccc1)Nc1ccc(OC(F)(F)F)cc1 | 14.8 |
| CCC(=O)NC(c1ccc(N(C)C)cc1)c1c(O)ccc2ccccc12 (stereo not drawn) | 17.5 |
| CC/C(=N\Nc1ccnc2cc(Cl)ccc12)c1ccc(O)cc1 | 18.9 |
| CC(Sc1nnc(-c2ccccc2Br)o1)C(=O)N1CCOCC1 (stereo not drawn) | -4.48 |
| Cc1cc(-c2ccccc2)nc(N(C)NC(=O)C(C)(C)C)c1S(C)(=O)=O | 11.4 |
| CC1CN(C(=S)SCCN2C(=O)CCC2=O)CC(C)O1 (stereo not drawn) | 12.1 |
| CCOC(=O)c1cn2nc(Oc3ccc(C#N)cc3)ccc2n1 | -54.1 |
| Cc1cc(NC(=O)Nc2ccccc2)n(C(C)(C)C)n1 | 24.2 |
| O=C(O)c1nsc(Cl)c1Cl | 10.1 |
| COc1ccc2c(c1)O[C@H]1c3ccc(O)cc3OC[C@@H]21 | -4.68 |
| CCOC(=O)c1c(NC(C)=O)sc2c(OCC(O)CNC(C)(C)C)c(Br)ccc12 (stereo not drawn) | -11.8 |
| O=C(CSc1nnc(NC(=O)C2CC2)s1)Nc1ccccc1C(F)(F)F | 9.73 |
| Cc1ccccc1CNC(=O)C1CCCN(c2cnccn2)C1 (stereo not drawn) | 6.12 |

| Compound | hERG current change (%, negative = inhibition) at 10uM [%] |
| --- | --- |
| O=c1[nH]c(SCc2n[nH]c(=S)n2-c2ccccc2)nc2sc3c(c12)CCC3 | 25.1 |
| CCOC(=O)Cc1csc(NC(=O)c2ccc(OC)c(OC)c2)n1.Cl | -16.4 |
| NC(=O)c1nsc(C(=O)N(CCCN2CCOCC2)C(C(=O)NC2CCCCC2)c2ccc(Cl)cc2)c1N (stereo not drawn) | -42.8 |
| O=C(O)c1ccccc1NCc1ccncc1 | 7.7 |
| S=C(Nc1cccc2ccccc12)NC1CCCCC1 | -1.99 |
| CCCOc1cccc(-c2cc(-c3n[nH]c(=S)n3CC)c3ccccc3n2)c1 | 6.72 |
| CC(=O)NC1CC2CCCC(C1)N2Cc1ccc(C)cc1 (stereo not drawn) | -30.5 |
| Cl.O=C1c2ccccc2C(=O)N1CC#CCN1CCN(C2CCCCC2)CC1 | -40.8 |
| COc1ccc(CC(=O)Nc2ccc(C(C)=O)cc2)cc1 | 30.8 |
| CC(=O)c1cc(CN2C(=O)CCC2=O)cs1 | 5.27 |
| CC(C)N1CCc2c(sc(NC(=O)c3ccc(S(=O)(=O)N4CCOCC4)cc3)c2C#N)C1 | 4.2 |
| CCNC(=S)NNC(=O)CSc1nc2ccccc2n1C | 5.25 |
| CC(C)(C)c1ccc(-n2ncc3c2CCCC3NC(=O)CCn2cncn2)cc1 (stereo not drawn) | -31 |
| COc1ccc(/C(C)=N/NC(=O)c2cc(-c3cccnc3)nc3ccccc23)cc1 | 10.6 |
| Cc1ccccc1C(=O)Nc1ccnc(-c2ccncc2)n1 | 21.2 |
| S=C(Nc1ccccn1)NC1CCCCC1 | 12.9 |
| CC(C)NC(=O)C1CCN(Cc2cccc(Oc3ccccc3)c2)CC1.O=C(O)C(=O)O | -22.8 |
| CCN(CC)C(=O)[C@]1(c2ccccc2)C[C@@H]1CN.Cl | -6.32 |
| CCCCCCOc1ccc(N2C(=O)CC(SC(=NCC)NCC)C2=O)cc1 (stereo not drawn) | 20.9 |
| CC(C)c1cc(-c2n[nH]c(=S)n2Cc2ccccc2)cs1 | 17.8 |
| COc1ccc(OC)c(C(=O)COC(=O)C2CC3CCCC(C2)C3=O)c1 (stereo not drawn) | 1.45 |
| COc1ccc(C2c3c4c(n(C)c3CCN2C)CCN(C)C4c2ccc(OC)cc2)cc1.Cl (stereo not drawn) | -4.24 |
| O=C(c1ccncc1)N1CCN(S(=O)(=O)c2cccc(F)c2)CC1 | 7.6 |

| Compound | hERG current change (%, negative = inhibition) at 10uM [%] |
| --- | --- |
| CCc1nnc(NC(=O)[C@@H](NC(=O)c2ccc(C(C)(C)C)cc2)C(C)C)s1 | -0.443 |
| CCCCN1C(=O)/C(=C2/Sc3ccccc3N2C)S/C1=N\c1ncn[nH]1 | 7.78 |
| CCCC(=O)N1CCN(c2nc3ccccc3s2)CC1 | -24.7 |
| Br.C=CCN1CCc2c(cc(O)c(O)c2Br)[C@@H](c2ccccc2)C1 | -30.4 |
| COc1cc(NS(=O)(=O)c2ccc(N)cc2)nc(OC)n1 | 9.57 |
| CC(C)(C)c1ccc(C(=O)N/C(N)=N/c2nc3ccccc3o2)cc1 | -9.62 |
| CCOc1ccccc1NS(=O)(=O)c1cc2c3c(c1)CC(=O)N3CCC2 | -11.2 |
| O=C(c1ccc(=O)[nH]c1)N(Cc1ccco1)C1(C(=O)NC2CCCCC2)CCCCC1 | -12.9 |
| Cc1ccc(-c2nc3sc(C(N)=O)c(N)c3c3c2CCCC3)cc1 | 7.88 |
| O=C(Oc1ccc2[nH]cc(CCN3C(=O)c4ccccc4C3=O)c2c1)c1ccco1 | 6.5 |
| CC(C)CNC(=O)CC(=O)N/N=C/c1cccs1 | 3.83 |
| O=C(c1cccnc1)N1CCN(C(=O)c2ccco2)CC1 | 9.05 |
| CC(/C=C1\SC(=O)N(CCCC(=O)O)C1=O)=C\c1ccccc1 | 12 |
| COc1ccc(Cl)cc1S(=O)(=O)NC(C)C(=O)NCc1ccc2c(c1)OCO2 (stereo not drawn) | 0.0796 |
| Cc1ccccc1NC(=O)CSc1nc2cc3c(cc2cc1C)CCC3 | 1.79 |
| NNC(=S)Nc1c(Br)cc(F)cc1Br | 5.92 |
| Cc1ccc(S(=O)(=O)NCc2c(-c3ccccc3)noc2C)cc1 | -29.5 |
| O=C(c1ccnc(Cl)c1)N1CCCC(N2CCN(c3ccccc3F)CC2)C1 (stereo not drawn) | -11.2 |
| CN(C)c1ccc(C(=S)N2CCN(S(=O)(=O)c3ccccc3)CC2)cc1 | 3.74 |
| Cc1nc(NC(=S)NC(=O)c2ccco2)sc1C(=O)N(C)C | 27.6 |
| CCn1cc(C(=O)NCc2ccc(OC)cc2)c(=O)c2ccc(C)nc21 | 22.1 |
